Data reported in PubChem BioAssay AID463173 (ICCB-Longwood Screening Facility, Harvard Medical School, 2010).
Hit rate of the full screen: of about 52,000 compounds, about 1,700 (3.3%) were called active. Cut-off read from the data, not from the text of the source: active = survival mostly below about 52% (no sharp cut-off); inactive = mostly above about 56%. The list shows a part of the results.

test system: Wild type; test: S. aureus survival, RN4220 and DeltatarO strains – OD600, teichoic acid synthesis inhibitors, primary screen (AID 463173); details: S. aureus RN4220 wild type/DeltatarO growth, OD600, 18 h, stronger effect = lower value, screened at 18.75 µg/mL (by protocol)

Row | Structure (SMILES) | survival
1 | COCCNC(=O)C(=O)NCC(c1cccnc1)N1CCN(c2ccccc2OC)CC1 (configuration not stated) | inactive: 92%
2 | COc1cc(C(=O)NCC(c2cccnc2)N2CCc3ccccc3C2)cc(OC)c1OC (configuration not stated) | inactive: 80%
3 | CCC(=O)Nc1ccccc1-c1nc2ccccc2n(CC(=O)c2ccc(C)c(C)c2)c1=O | inactive: 64%
4 | O=S(=O)(Nc1cccc(-c2ccc(N3CCCCCC3)nn2)c1)c1ccccc1F | inactive: 57%
5 | CC1(C)CC(=O)C(C=NCCCN2CCCC2=O)=C(O)C1 | inactive: 85%
6 | O=C(CN1C(=O)COc2ccc(S(=O)(=O)N3CCOCC3)cc21)N1CCN(c2cccc(C(F)(F)F)c2)CC1 | inactive: 91%
7 | Cc1oc2ncn(C)c(=O)c2c1C(=O)Nc1ccccn1 | inactive: 90%
8 | CCc1nc2sc3c(N4CCC(C)CC4)ncnc3c2c2c1CCCC2 | inactive: 123%
9 | Cc1ccc(CN(C(=O)COc2ccc(Cl)c(C)c2)c2ccccn2)o1 | inactive: 78%
10 | CN(C)S(=O)(=O)c1ccc(C(=O)NCCS(=O)(=O)N2CCN(c3ccccc3)CC2)cc1 | inactive: 73%
11 | Cc1nc2nc(SCc3c(F)cccc3Cl)nn2c(C)c1Cc1ccccc1 | inactive: 53%
12 | Cc1ccc(-c2cc(-c3ccc4c(c3)NC(=O)CO4)nc3c2COc2ccc(C)cc2-3)cc1 | inactive: 73%
13 | COc1cc(C2c3c(-c4c(C)cc(C)cc4O)n[nH]c3C(=O)N2CCO)cc(OC)c1OC (configuration not stated) | inactive: 101%
14 | COc1ccc(OC)c(CNC(=O)c2cc3cc4ccc(OC)cc4nc3o2)c1 | inactive: 90%
15 | Cc1cc(NC(=O)c2ccccc2Cl)ccc1NC(=O)c1ccccc1 | inactive: 85%
16 | COc1ccc(-c2noc(COc3cc(C)c(Br)c(C)c3)n2)cc1OC | inactive: 80%
17 | Cc1cc(-n2c(C)nc3ccccc3c2=O)ccc1NC(=O)c1ccc(C)c([N+](=O)[O-])c1 | active: 10%
18 | Cc1ccc(C(=O)/C=C/c2cn(CC(O)CN3CCc4ccccc43)c3ccccc23)cc1 (configuration not stated) | inactive: 76%
19 | O=C(Nn1cnnc1)c1cccc(C(=O)Nn2cnnc2)c1 | inactive: 111%

Row | Structure (SMILES) | survival
20 | CCOc1cc2sc(N3CCC(C(=O)Nc4ccccc4Cl)CC3)nc2cc1Br | inactive: 73%
21 | Cc1ccc(CN2CCC(CNC(=O)c3cc4ccc5cccnc5c4[nH]3)CC2)cc1 | inactive: 113%
22 | Cc1cc(S(=O)(=O)C(CNC(=O)COc2ccccc2)c2cccs2)ccc1F (configuration not stated) | inactive: 153%
23 | Cc1ccc(-c2nn(CC(=O)NC3CCCC3)c3c2cnc2ccc(F)cc23)cc1C | inactive: 74%
24 | O=C(Nc1ccc2nc(SCc3ccccc3)sc2c1)c1cccc(F)c1 | inactive: 89%
25 | COc1ccc(NC(=O)CCN2CCN(CCO)CC2)c(OC)c1 | inactive: 69%
26 | COc1ccc(Oc2nc3c(c(=O)n(C)c(=O)n3C)n2Cc2ccccc2Cl)cc1 | inactive: 75%
27 | COc1ccccc1Cn1cc(C(=O)c2ccc(Cl)cc2)c(=O)c2cc3c(cc21)OCCO3 | inactive: 92%
28 | CCN(CC)C(=O)CSc1nnc(-c2ccc(OC)cc2)n1CCOC | inactive: 107%
29 | COc1ccc(OCCSc2nc(C)c(Cc3ccccc3)c(=O)[nH]2)cc1 | inactive: 84%
30 | CC(C(=O)Nc1ccc(F)c(Cl)c1)N1Cc2ccccc2C1=O (configuration not stated) | active: 0%
31 | COc1ccc(-c2noc(N3CCN(c4cccc(Cl)c4)CC3)n2)cc1OC | inactive: 73%
32 | Cc1cc(OCC(=O)Nc2cc(-c3nc4ccccc4[nH]3)ccc2C)ccc1Cl | inactive: 69%
33 | CCSc1oc(-c2ccc(F)cc2)nc1S(=O)(=O)c1ccc(C)cc1 | inactive: 41%
34 | CN1CCN(C(=O)c2ccc3c(c2)N(Cc2c(F)cccc2Cl)C(=O)c2ccccc2S3)CC1 | inactive: 95%
35 | CCc1sc(Nc2ccc(Cl)cc2)nc1-c1cc2cccc(OC)c2oc1=O | inactive: 84%
36 | CCOc1cc(C(=O)Nc2nnc3n2CCS3)cc(OCC)c1OCC | inactive: 66%
37 | COc1ccccc1CNC(=O)COc1cc(=O)n(C)c2ccccc12 | inactive: 66%
38 | CCOC(=O)c1cc2occc2n1C(C)C(=O)OCC (configuration not stated) | inactive: 95%

Row | Structure (SMILES) | survival
39 | Cc1ccccc1C(=O)Nc1nnc(SCc2cc(=O)n3ccccc3n2)s1 | inactive: 55%
40 | CCOc1ccc(C(=O)CSc2nnc3cc(C)c4ccccc4n23)cc1 | inactive: 85%
41 | CC(C)(C)c1ccc(C(=O)NCC(c2cccs2)S(=O)(=O)c2ccc(F)cc2)cc1 (configuration not stated) | inactive: 138%
42 | Cc1ccc(N(CC(=O)NCC(C)c2ccccc2)S(=O)(=O)N(C)C)cc1 (configuration not stated) | inactive: 63%
43 | CC(=O)c1cccc(S(=O)(=O)N2CCN(c3ccccc3F)CC2)c1 | inactive: 89%
44 | CCCCC(CC)CNC(=O)c1ccc2c(=O)n(CCOC)c(=O)[nH]c2c1 (configuration not stated) | inactive: 134%
45 | COc1cc(Cl)c(C)cc1Nc1nc2ccccc2nc1NS(=O)(=O)c1ccccc1 | inactive: 127%
46 | Cc1ccc(N2CCN(C(=O)NCc3noc4ccccc34)CC2C)cc1 (configuration not stated) | inactive: 84%
47 | Cc1cccc(C(=O)Nc2ccc(-c3nc4cc(C(C)C)ccc4o3)cc2)c1 | inactive: 47%
48 | COc1ccccc1N1CCN(C(=O)c2cnn(-c3ccc(C)c(C)c3)c2C2CCN(C(=O)OC(C)(C)C)CC2)CC1 | inactive: 99%
49 | O=C(CCCN1CCOCC1)c1ccc2c(c1)OCCO2 | inactive: 106%
50 | COc1ccc(S(=O)(=O)n2nc(C)c(S(=O)(=O)N3CCCCCC3)c2C)cc1OC | active: 1%
51 | CCOC(=O)c1ccc(NC(=O)C2CCN(C(=O)N3CC(C)Oc4ccc(C)cc43)CC2)cc1 (configuration not stated) | inactive: 60%
52 | CCCOc1ccc(C(=O)N(Cc2cccs2)c2ccc(C)cc2)cc1 | inactive: 101%
53 | CCOC(=O)c1c(C)oc2ncnc(NCCCN3CCN(c4cc(C)ccc4C)CC3)c12 | inactive: 70%
54 | COc1ccc(-c2c3c(nc4sc(C(=O)Nc5ccc(F)cc5)c(N)c24)CC(C)(C)CC3=O)cc1 | inactive: 84%
55 | Cc1nnc2c(Nc3ccccc3I)nc3nonc3n12 | inactive: 108%
56 | Cc1ccccc1-c1nc(C(N)=O)c2c(n1)n(-c1ccc3c(c1)OCO3)c(=O)n2C | inactive: 76%
57 | O=S(=O)(NCCc1csc2nc(-c3ccc(Cl)cc3)nn12)c1ccc(Oc2ccccc2)cc1 | inactive: 69%
